Measurements reported in patent US20190016771A1 (Hoffmann-La Roche, published 2019).

Molecular target: T1, human 4-1BB (CD137) on the cell surface (human, UniProt Q07011 24-255)
T1 construct: whole, on cells; also called HeLa-huCD137-NF-kB-luciferase reporter cells
Assay: flow cytometry on activated human CD8+ T cells (PBMC), detection with PE-labelled anti-human IgG F(ab')2-specific goat F(ab')2, median fluorescence, baseline corrected
Protocol: Plates were centrifuged 4 minutes with 400×g and at 4° C. and supernatant was discarded. If cells were fixed before acquisition by flow cytometry they were washed once with 200 μL/well DPBS and then stained for 30 min at 4° C. with […] DPBS containing 1:1000 diluted LIVE/DEAD Fixable Aqua Dead Cell Stain (Life technologies, Molecular Probes, Cat-No.: L34957). If cells were acquired the same day and DAPI was used to discriminate dead cells this staining step was skipped. Afterwards cells were washed once with 200 μL cold FACS buffer (DPBS supplied with 2% (v/v) FBS, 5 mM EDTA pH8 (Amresco, Cat. No. E177) and 7.5 mM sodium azide (Sigma-Aldrich S2002)). Next, 50 μL/well of 4° C. cold FACS buffer containing FAP-targeted CMP trimeric 4-1BB ligand-containing antigen binding molecule, DP47-targeted CMP trimeric 4-1BB ligand-containing antigen binding molecule or not-specific binding huIgG1 P329G LALA control antibody were added and cells were incubated for 120 minutes at 4° C. Cells were washed four times with 200 μL/well 4° C. FACS buffer. […]

T1 sequence (Q07011 24-255): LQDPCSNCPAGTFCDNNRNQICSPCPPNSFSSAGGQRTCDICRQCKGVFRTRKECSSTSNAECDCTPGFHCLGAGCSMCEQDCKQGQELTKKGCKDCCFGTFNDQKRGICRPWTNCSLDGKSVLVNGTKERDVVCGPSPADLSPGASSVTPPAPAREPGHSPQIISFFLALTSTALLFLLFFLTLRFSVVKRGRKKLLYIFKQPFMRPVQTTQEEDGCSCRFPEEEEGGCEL

- EC50 (read off the curve): ~0.6 nM
B1: DP47 untargeted human CMP (CMPtd) trimeric 4-1BBL(71-254)-containing antigen binding molecule (other)
chain: [… about 100 residues …]GSGFDYWGQGTLVTVSSASTKGPSVFPLAPSSKSTSGGTAALGCLVKDYFPEPVTVSWNSGALTSGVHTFPAVLQSSGLYSLSSVVTVPSSSLGTQTYICNVNHKPSNTKVDKKVEPKSCDGGGGSGGGGSEEDPCACESLVKFQAKVEGLLQALTRKLEAVSKRLAILENTVVSGGGGSGGGGSGGGGSGGGGSREGPELSPDDPAGLLDLRQGMFAQLVAQNVLLIDGPLSWYSDPGLAGVSLTGGLSYKEDTKELVVAKAGVYYVFFQLELRRVVAGEGSGSVSLALHLQPLRSAAGAAALALTVDLPPASSEARNSAFGFQGRLLHLSAGQRLGVHLHTEARARHAWQLTQGATVLGLFRVTPEIPAGLPSPRSE
light: [… about 100 residues …][… about 100 residues …]
notes: Untargeted control of m1; trimerizes via the CMP trimerization domain; also called trimeric DP47-huCMP-4-1BBL
